Hit rate of the full screen: of about 44,000 compounds, about 340 (0.77%) were called active. Another 5% or so got no clear call; they are omitted. Calls come from the whole dose curve; as a rule, active = well fitted inhibition curve with a large enough effect; inconclusive = small, poorly fitted or top-dose-only effect; inactive = flat fitted curve, though single readings scatter. Some of the results follow.
Experiment: Acumen qHTS Assay for Inhibitors of the mTORC1 Signaling Pathway in MEF (Tsc2-/-, p53-/-) Cells: Sytravon; note: nearly all actives have a fitted effect of over 50% in size
Details: phospho-rpS6 immunofluorescence/PI, 24 h; series mostly up to 38.3 µM; activity change, negative = inhibition: at the top concentration
In short: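 Readout is phospho-S6 Alexa 488 signal normalized to PI per well, reported as % active cells with thresholds set from rapamycin (7.5 nM) and DMSO controls. Cells: Tsc2-/-, p53-/- MEFs, 24 hrs compound at 37 C; PI cell number serves as viability.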

Activity change, negative = inhibition, inactive:
Cc1sc(-n2cccc2)c(C(C)NC(=O)Nc2cccc(C(F)(F)F)c2)c1C (configuration not stated) -25.9%
COc1cc(OC)cc(C(=O)NCCc2csc3nc(-c4ccccc4F)nn23)c1 1.39%
CCOc1cccc(C(=O)N(Cc2ccc(C)o2)C2CCS(=O)(=O)C2)c1 (configuration not stated) 4.68%
COc1cccc(CNC(=O)c2cc(-c3ccc(Cl)cc3)n[nH]2)c1 -7.21%
O=C(CCC(=O)N1CCSc2ccccc21)Nc1ccc(Cl)cc1 1.56%
CCC(CC)c1nn2c(=O)cc(COc3ccc(NC(=O)c4cccc(C)c4)cc3)nc2s1 -20.4%
COc1ccc(CNC(=O)c2ccc3c(c2)N(Cc2cc(C)ccc2C)C(=O)CS3)cc1 -6.79%
COc1ccccc1CNS(=O)(=O)c1cc(Br)cc2c1N(C(=O)C1CC1)CC2 -1.54%
COc1ccc(CNc2nc(-c3ccc(Cl)cc3)nn2S(=O)(=O)c2ccc(C)cc2)cc1 4.48%
O=c1cc(COc2ccc(Cl)cc2Cl)nc2scc(-c3ccccc3)n12 1.49%
COc1ccccc1OCC(=O)N(Cc1ccco1)Cc1ccccc1F -3.13%
CC(CNC(=O)c1ccc2c(c1)nc1n2CCCCC1)c1ccccc1 (configuration not stated) -2.51%
CCOc1ccc(CC(=O)NC2CC(=O)N(c3cccc(F)c3)C2)cc1 (configuration not stated) -3.1%
Cc1ccc(C2C(=O)N(C3CCC(C)CC3)CC(=O)N2C2CCCC2)cc1 (configuration not stated) 2.83%
COc1ccccc1-c1nn2c(=O)cc(CN3CCN(C(=O)Nc4ccc(C)cc4Cl)CC3)nc2s1 -1.23%
CCOc1ccc(-n2c(=O)c3c(C)c(C)sc3n(CC(=O)C(C)(C)C)c2=O)cc1 -0.258%
Cc1cc(NS(=O)(=O)c2ccc(NC(=O)COc3c(C)ccc(C)c3C)cc2)nc(C)n1 -3.35%
Cc1ccc(-n2c(=O)c3c(c4cc(C)ccc4n3C)n(CC(=O)Nc3ccc(F)cc3)c2=O)cc1 1.36%
CC(=O)c1ccc(N2CCN(C(=O)c3cn(C)c(=O)c4c3c3ccccc3n4C)CC2)cc1 0.748%
CCS(=O)(=O)N1CCc2cc(C(=O)Nc3ccc(Br)cc3F)ccc21 -0.127%
COc1cc(C(=O)NCC(c2ccco2)S(=O)(=O)c2cccs2)cc(OC)c1OC (configuration not stated) 0.862%
CCc1cccc(C)c1NC(=O)c1ccc2c(c1)CCN2S(=O)(=O)c1ccc(Cl)cc1 6.36%
COc1ccc(CNC(=O)COCc2cc(-c3ccc4c(c3)OCO4)on2)cc1 0.141%
Cc1cc(C)cc(NC(=O)CCc2c(C)nc3nc(CNC(=O)c4cccc(F)c4)nn3c2C)c1 -5.54%
COCCCNc1nc2c(c(=O)n(Cc3ccc(F)cc3)c(=O)n2C)n1C 2.3%
CCCCC(=O)Nc1nnc(S(=O)(=O)N(C)Cc2ccc(Cl)cc2)s1 -3.9%
COc1ccc(N(Cc2cccs2)C(=O)c2ccco2)cc1 -8.93%
COc1ccc(OC)c(S(=O)(=O)NCC(c2ccc(N(C)C)cc2)N2CCOCC2)c1 (configuration not stated) 7.05%
COC(=O)c1cc(NC(=O)c2cc3c(-c4ccccc4F)nn(C)c3s2)cc(C(=O)OC)c1 5.88%
COc1ccc(N2CCN(S(=O)(=O)c3ccc(CC(C)C)cc3)CC2)cc1 -0.655%
O=C(NCC(c1ccco1)S(=O)(=O)c1cccs1)c1ccccc1 (configuration not stated) -17.6%
Cc1c(Cl)cccc1Nc1nn2c(=O)c3ccccc3nc2s1 -9.17%
COC(=O)c1cc2oc3ccccc3c2n1Cc1ccc(C)cc1 -3.29%
CCOC(=O)c1cc2c(=O)n3ccccc3nc2n(Cc2ccco2)c1=NC(=O)c1ccccc1Br 0%
CCOc1ccc(NC(=O)Cn2c(=O)n(CCCC(=O)NCCc3ccc(Cl)cc3)c(=O)c3ccccc32)cc1 -0.0216%
Cc1ccccc1-c1noc(-c2ccc(NCC3CCCO3)c([N+](=O)[O-])c2)n1 (configuration not stated) 5.22%
COc1ccccc1CNC(=O)CC(c1ccc(F)cc1)N1Cc2ccccc2C1=O (configuration not stated) -14.2%
Cc1ccc(Cn2c(SCC(=O)NCc3ccccc3)nc3ccsc3c2=O)cc1 -7.21%
Cc1cccc(N2CCN(S(=O)(=O)c3ccc(-c4cnc(C5CC5)o4)cc3)CC2)c1C 0%
CCOC(=O)c1cccc(NC(=O)C(C)n2nc(C)c3c(C)n(-c4ccccc4)nc3c2=O)c1 (configuration not stated) -4.88%
Cc1ccc([N+](=O)[O-])cc1NC(=O)CN(c1ccccc1)S(=O)(=O)N(C)C -3.82%
Cc1oc(-c2ccccc2F)nc1CS(=O)(=O)CC(=O)N1CCN(c2ccccc2)CC1 0.964%
COc1ccc(NC(=O)Cn2c(=O)n(CCc3ccccc3)c(=O)c3ccccc32)cc1 2.15%
COc1ccc2nc(NC(=O)c3cc(=O)c4ccccc4o3)sc2c1 2.45%
Cc1noc(-c2ccc(NCc3ccccc3)c([N+](=O)[O-])c2)n1 0.478%
COc1cccc(CNS(=O)(=O)c2cc3c(cc2C)n(C)c(=O)c(=O)n3C)c1 0.934%
O=C(c1cccc(Cl)c1)N1CCN(CCc2ccccn2)CC1 0.0346%
CCCCNC(=O)c1c(C)oc2ncn(CC(C)C)c(=O)c12 -20.4%
CCOc1ccc(NC(=O)Cn2nc(-c3ccncc3)ccc2=O)cc1 -1.43%
Cc1ccccc1OCC(=O)Nc1cc(-c2cccc(Br)c2)nn1-c1ccccc1 0%
O=C(NCc1nc2cccnc2n1Cc1ccc(F)cc1)c1ccccc1C(F)(F)F -13.2%
COc1ccccc1CNCCSc1nnnn1C -22.6%
Nc1c(-c2nc(-c3ccncc3)no2)nnn1CC(=O)Nc1ccccc1 0.113%
COc1ccc(C(=O)N(Cc2ccco2)Cc2ccco2)cc1 -0.926%
COC(=O)c1c(N)n(-c2cc(Cl)cc(Cl)c2)c2nc3ccccc3nc12 -3.97%
CCC(=O)N1CCc2cc(Br)cc(S(=O)(=O)N3CCCC(C(=O)NCc4ccccc4)C3)c21 (configuration not stated) -1.94%
Cc1ccccc1CN1C(=O)c2ccccc2Sc2ccc(C(=O)NCc3cccs3)cc21 -3.16%
Cc1noc(/C=C/c2ccccc2F)c1S(=O)(=O)N1CCC(C(=O)N(C)Cc2ccco2)CC1 -10.2%
COc1ccc(S(=O)(=O)NCC(c2ccco2)N2CCOCC2)cc1C (configuration not stated) -4.42%
COc1ccccc1N1CCN(S(=O)(=O)c2c(C)sc3ncn(CC(=O)Nc4ccccc4F)c(=O)c23)CC1 -3.07%
CCOc1ccc(/C=C/c2nc3ccccc3n2S(=O)(=O)c2ccc(Br)cc2)cc1 -1.89%
COc1cccc(NC(=O)Cn2c(=O)n(-c3ccc(Cl)cc3)c(=O)c3sc4ccccc4c32)c1 -7.97%
CCc1ccc(NCc2cccn2-c2nnc(N3CCCCCC3)s2)cc1 -3.42%
CCOc1ccc(NC(=O)CSc2nnc(CNC(=O)c3c(F)cccc3Cl)o2)cc1 -0.625%
Cc1ccc2c(c1)N(C(=O)NCc1ccccc1)CCO2 -4.35%
CCC(C)NC(=O)c1ccc2c(=O)n3c(nc2c1)CCCCC3 (configuration not stated) 0.497%
Cc1ccc(NC(=O)Cn2nnc3sc(-c4ccccc4)cc3c2=O)cc1Cl -5.16%
COC(=O)c1ccc(Cl)cc1NC(=O)N(Cc1ccc(C)o1)C1CCN(C(C)=O)CC1 1.47%
COc1ccc(C(=O)NCC2(N3CCN(C)CC3)CCCCC2)cc1 -4.83%
COc1ccc(C)cc1NS(=O)(=O)c1ccc2c(c1)n(C)c(=O)n2C 0.0824%
CCC(CC)c1nn2c(=O)cc(COc3ccc(NC(=O)c4cccc(Cl)c4)cc3)nc2s1 -3.14%
CCn1c(=O)c(=O)n(CC)c2cc(N3CCCCC3)c(NC(=O)c3cccc(F)c3)cc21 -3.15%
Cc1nnc2c(Nc3cccc(O)c3)nc3ccccc3n12 4.36%
CCCN1Cc2cccc(C(=O)Nc3cc(C)cc(C)c3)c2C1=O -6.01%
CC(=O)Nc1ccc(C)cc1-c1nc2ccccc2n(CC(=O)Nc2cc(Cl)ccc2C)c1=O -15%
COc1ccc(Cl)cc1NC(=O)CCC(=O)N1CCOc2ccccc21 1.28%
COc1ccc(NC(=O)Cn2c(=O)n(Cc3ccc(C(=O)NCc4ccccc4Cl)cc3)c(=O)c3ccccc32)cc1OC -4.06%
COc1ccc(NC(=O)CSc2nc(-c3ccco3)cc(C(F)(F)F)n2)cc1 -20.3%
CC(C)c1ccc(OC(=O)c2cc(-c3ccc(Cl)cc3)on2)cc1 -18.6%
Cc1ccc(-n2ncc3c(NCCCn4ccnc4)ncnc32)cc1Cl 12.6%
CCN(CC)C(=O)Cn1c(=O)nc(-c2ccccc2F)c2cc(Cl)ccc21 14.1%
COC(=O)c1cnc(NCc2ccc(F)cc2)c2ccccc12 0%
Cc1cc(F)ccc1S(=O)(=O)Nc1ccc2c(c1)CCCN2C(=O)c1cccs1 2.23%
COc1ccc(N2C(=O)C(CC(=O)Nc3ccc(F)cc3)N(Cc3ccc4c(c3)OCO4)C2=O)cc1 (configuration not stated) -8.91%
O=C1c2[nH]nc(-c3ccccc3O)c2C(c2ccccc2F)N1Cc1ccncc1 (configuration not stated) -4.58%
CCOC(=O)Cc1ccc(NC(=O)NCc2cccn2Cc2ccccc2)cc1 -1.57%
COc1ccc(-n2c(=O)c3sc4ccccc4c3n(CC(=O)Nc3ccccc3F)c2=O)cc1 -1.91%
Cc1ccc(NC(=O)CSc2nc(-c3cccs3)nc3cc(=O)[nH]n23)cc1 1.95%
Cc1ccc(Nc2nnc(-c3ccc(C)c(S(=O)(=O)N4CCOCC4)c3)c3ccccc23)c(C)c1 19.1%
CCOc1ccc(C(=O)c2cn(Cc3ccc(Cl)cc3)c3cc(OC)c(OC)cc3c2=O)cc1 0.863%
CCC(Cc1ccccc1)NC(=O)Cn1ncc2c3ccccc3n(Cc3ccccc3)c2c1=O (configuration not stated) -0.498%
CCc1nc2nc(C)cc(Nc3ccc(OC)cc3OC)n2n1 -5.92%
Cc1ccc2c(c1)NC(=O)C(CC(=O)Nc1ccccc1Cl)O2 (configuration not stated) -0.0902%
Cc1cc(C)n2nc(SCC(=O)Nc3ccccc3C)nc2n1 -0.14%
Cc1ccc(Cl)cc1N1CCN(C(=O)c2cc(S(=O)(=O)N3CCCC3)cn2C)CC1 -4.42%
Cc1ccc(NC(=O)Cn2c(=O)n(-c3ccccc3)c(=O)c3c4c(sc32)CCCC4)cc1 2.82%
COc1ccc(C)cc1Nc1nc2cc(Cl)c(Cl)cc2nc1-n1nc(C)cc1C -0.0717%

From PubChem BioAssay AID493208 (National Center for Advancing Translational Sciences (NCATS), 2011)
